From PMC4336329 (PLoS ONE, 2015)
Among all 310,000 compounds or so, about 2,200 (0.71%) showed an effect of 50% or more. Effects have a minus sign here. The list shows a part of the results.

The compounds below were run against human ether-à-go-go-related gene (hERG) potassium channel (human, UniProt Q12809) (assay: primary screen, population patch clamp on CHO cells stably expressing hERG).
Chain of human ether-à-go-go-related gene (hERG) potassium channel (Q12809 whole entry, looked up): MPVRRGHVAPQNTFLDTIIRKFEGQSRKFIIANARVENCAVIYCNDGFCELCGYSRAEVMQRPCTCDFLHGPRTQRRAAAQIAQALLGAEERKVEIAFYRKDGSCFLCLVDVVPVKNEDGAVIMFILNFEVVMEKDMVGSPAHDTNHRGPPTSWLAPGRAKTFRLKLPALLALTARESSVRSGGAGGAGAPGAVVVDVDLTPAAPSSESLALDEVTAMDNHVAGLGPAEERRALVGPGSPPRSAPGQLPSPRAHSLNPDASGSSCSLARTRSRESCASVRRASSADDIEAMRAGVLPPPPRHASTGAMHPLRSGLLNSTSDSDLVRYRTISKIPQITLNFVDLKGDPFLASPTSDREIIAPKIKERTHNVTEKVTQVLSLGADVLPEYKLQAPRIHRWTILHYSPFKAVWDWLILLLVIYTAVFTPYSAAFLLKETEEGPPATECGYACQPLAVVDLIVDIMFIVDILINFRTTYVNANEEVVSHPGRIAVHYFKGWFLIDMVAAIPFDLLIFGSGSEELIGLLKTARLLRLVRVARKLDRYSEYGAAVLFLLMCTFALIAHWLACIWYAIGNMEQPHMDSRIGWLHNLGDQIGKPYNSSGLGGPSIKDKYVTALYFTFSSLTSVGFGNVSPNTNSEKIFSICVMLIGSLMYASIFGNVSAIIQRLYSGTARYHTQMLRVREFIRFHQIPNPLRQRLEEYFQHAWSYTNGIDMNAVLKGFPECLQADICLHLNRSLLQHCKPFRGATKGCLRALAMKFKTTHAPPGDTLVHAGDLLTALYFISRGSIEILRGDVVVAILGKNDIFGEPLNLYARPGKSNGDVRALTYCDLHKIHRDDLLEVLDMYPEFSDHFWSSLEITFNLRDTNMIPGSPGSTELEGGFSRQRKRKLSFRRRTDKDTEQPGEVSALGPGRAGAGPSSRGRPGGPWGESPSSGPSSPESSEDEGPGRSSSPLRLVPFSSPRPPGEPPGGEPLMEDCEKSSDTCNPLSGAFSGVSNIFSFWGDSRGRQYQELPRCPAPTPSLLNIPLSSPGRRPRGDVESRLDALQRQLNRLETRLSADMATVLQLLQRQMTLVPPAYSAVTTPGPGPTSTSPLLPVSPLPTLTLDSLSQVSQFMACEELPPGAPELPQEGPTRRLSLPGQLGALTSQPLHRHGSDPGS

| Compound | hERG current change (%, negative = inhibition) at 1uM |
| --- | --- |
| CC(C)c1ccc(C2NC(=S)NC3=C2C(=O)CCC3)cc1 (stereo not drawn) | 8.94% |
| CCn1cc(Cl)c(C(=O)Nc2ccc3c(c2)OCCO3)n1 | -13.4% |
| O=c1c2ccccc2nc(-c2ccc(Br)cc2)n1Cc1ccccc1 | 0.689% |
| CCOc1ccc(Oc2c(/C=N/NC(=O)C3CC3)c(C)nn2-c2ccccc2)cc1 | 9.94% |
| CC(C)(C)n1nnnc1C(c1cccc(C#N)c1)N1CCC(Cc2ccccc2)CC1 (stereo not drawn) | 5.25% |
| CC(=O)N1c2ccc(S(=O)(=O)N3CCCCC3)cc2CC1C (stereo not drawn) | 11.4% |
| COc1cc2c(cc1OC)C(c1cccs1)N(C(=O)c1ccncc1)CC2 (stereo not drawn) | 1.08% |
| Cc1ccc(-n2c(C)cc(/C=C3\NC(=O)NC3=O)c2C)c(C)c1 | 10.4% |
| Cn1c(CN2CCOCC2)c(C#N)c2ccccc21 | 5.66% |
| COc1ccc(-c2cn[nH]c2-c2ccc(OCc3ccccc3)cc2O)cc1OC | 13.5% |
| Cc1cc(C)nc(NS(=O)(=O)c2ccc(NC(=O)c3ccccc3[N+](=O)[O-])cc2)n1 | 10.6% |
| CCC(C)[C@H](NC(=O)NCc1cccc(OC)c1)C(=O)O (stereo partly drawn) | 4.23% |
| COc1ccc(NC(=O)c2cccc(NC(=O)C(C)C)c2)c([N+](=O)[O-])c1 | 10.6% |
| O=C(CN1C(=O)NC(c2ccccc2)(c2ccccc2)C1=O)NCc1ccccc1 | -8.3% |
| Cc1[nH]nc2c1[C@@H](c1ccccc1[N+](=O)[O-])C(C#N)=C(N)O2 | 10.8% |
| CCC(=O)Nc1ccc2oc(-c3cccc(C)c3)nc2c1 | -2.52% |
| Cc1ccc(C(=O)C2CCN(C(=S)NCC3CCCO3)CC2)cc1 (stereo not drawn) | 17.4% |
| NS(=O)(=O)c1ccc(NC(=O)COC(=O)c2ccc(Cl)cc2[N+](=O)[O-])cc1 | 9.62% |
| Cc1ccc(S(=O)(=O)N(CC(=O)N2CCC(C)CC2)c2ccccc2)cc1 | 8.52% |
| O=C(c1cc2c(s1)CCCC2)n1cccn1 | 0.571% |
| CCCCOc1ccc(Cl)cc1CSc1nncn1N | 9.02% |
| Cc1c(NC(=S)NC(=O)c2ccco2)c(=O)n(-c2ccccc2)n1C | 9.63% |

| Compound | hERG current change (%, negative = inhibition) at 1uM |
| --- | --- |
| O=c1[nH]cnc2ncc(-c3ccc(O)cc3)nc12 | 8.88% |
| Cc1nc(SCC(=O)Nc2c(C)n(C)n(-c3ccccc3)c2=O)[nH]c(=O)c1C | 8.86% |
| COc1ccc(C(=O)NC(=S)Nc2cccnc2)cc1Cl | 1.37% |
| CCOC(=O)c1cccc(NC(=O)c2cncc(Br)c2)c1 | 4.47% |
| Cc1ccc(C)c(C(C)NC(=O)Cc2cccs2)c1 (stereo not drawn) | 15.1% |
| CCc1ccc(NC(=O)C2CCCN2S(=O)(=O)c2ccc3c(c2)n(C)c(=O)c(=O)n3C)cc1 (stereo not drawn) | -8.19% |
| COc1ccc(-n2nc(C(=O)NCC(=O)N3CCN(c4ccccn4)CC3)c3ccccc3c2=O)cc1OC | 6.89% |
| C=CCn1c(CSCc2ccc(C)cc2)nnc1SCC(=O)NCc1ccccc1 | -4.88% |
| O=C(Cc1ccc([N+](=O)[O-])cc1)N/N=C/c1ccc([N+](=O)[O-])o1 | -17.3% |
| CC1(C)C(=O)NCCN1C(=O)CSc1nccc(-c2ccc(Br)cc2)n1 | 0.619% |
| CN(C)Cc1nc2ccccc2c(=O)n1CC(=O)Nc1cccc(S(=O)(=O)N2CCOCC2)c1 | 1.05% |
| O=C(NC1CC1)C1CCN(C(=O)c2ccc(Cl)cc2Cl)CC1 | 12.9% |
| COc1ccc(C(=O)Oc2ccc(=O)n(-c3ccccc3)n2)cc1 | 11.1% |
| CCOC(=O)N1CCN(C(=O)c2cccc(N3C(=O)NC4CC3(C)Oc3ccc(Cl)cc34)c2)CC1 (stereo not drawn) | 13.3% |
| O=C(COc1ccc(Cl)cc1)N1CCN(Cc2ccc3c(c2)OCO3)CC1 | -6.58% |
| O=C(C1CC(=O)N(C2CCCC2)C1)N1CCN(c2cccc(Cl)c2)CC1 (stereo not drawn) | 8.02% |
| CC(NC(=O)C(=O)N1CCCCC1)C(c1cccs1)N1CCN(c2ccc(F)cc2)CC1 (stereo not drawn) | 14.7% |
| O=C(NCC(O)c1ccc2ccccc2c1)c1c(F)cccc1F (stereo not drawn) | 15.5% |
| Cc1ccc(SCCN)cc1C.Cl | 20.3% |
| CN(Cc1ccccc1)S(=O)(=O)c1ccccc1[N+](=O)[O-] | 11.3% |
| Cn1nccc1NC(=O)Nc1cccc([N+](=O)[O-])c1 | 8.43% |
| COc1cc(-c2cc(-c3nnco3)c3ccccc3n2)cc(OC)c1OC | 10.1% |

| Compound | hERG current change (%, negative = inhibition) at 1uM |
| --- | --- |
| CCOC(=O)CNC(=S)N(CCCN1CCCC1)Cc1cccs1 | -9.92% |
| CCn1c(=O)cc(OCC(=O)NC2CC2)c2ccccc21 | 9.55% |
| CCOC(=O)C1CCN(C(=O)CN(c2cccc(C(F)(F)F)c2)S(C)(=O)=O)CC1 | 3.22% |
| CCN(CC)C(=O)N1CCN(C)CC1.O=C(O)CC(O)(CC(=O)O)C(=O)O | 19.3% |
| CCN(CC)S(=O)(=O)c1ccc2c(c1)nc(SC(C)C(N)=O)n2-c1ccc(OC)cc1 (stereo not drawn) | -6.79% |
| COc1cccc2c1OC1(C)CC2/C(=C(\C)O)C(=O)N1 (stereo not drawn) | 13% |
| COc1ccc(OCC(=O)NCCCNC(=O)COc2ccc(OC)cc2)cc1 | 4.68% |
| O=C(c1noc2c1CCc1ccccc1-2)N1CCCc2ccccc21 | 0.415% |
| CCOC(=O)/C(=N\Nc1cc(Cl)ccc1Cl)N1CC(C)OC(C)C1 (stereo not drawn) | 16% |
| Cc1ccc(C(=O)N2CCCC(Nc3cccc(F)c3)C2)cc1N1CCNC1=O (stereo not drawn) | 12.7% |
| COc1ccc(CCC(=O)NC2CCCc3ccccc32)cc1OC (stereo not drawn) | 19.4% |
| CCOC(=O)CCCCC(=O)c1[nH]c(=O)[nH]c1CSc1nnc2c3ccccc3n(C(C)C)c2n1 | -0.434% |
| Cc1c(Cl)cccc1-c1ccc(C(=O)N2CCN(c3ccc([N+](=O)[O-])cc3)CC2)o1 | -1.98% |
| CCOc1ccc(NS(=O)(=O)c2ccc(C(=O)NCc3ccncc3)cc2)cc1 | 13.7% |
| COCCn1cnc2c1c(=O)n(CC(=O)Nc1cc(C)on1)c(=O)n2Cc1ccccc1 | -13.9% |
| COc1cc(NC(=O)CCCOc2ccc(Cl)cc2Cl)c(C(=O)O)cc1OC | 6.69% |
| CC(C)[C@H](NS(=O)(=O)c1ccc2c(c1)OCCO2)C(=O)OCC(=O)Nc1cc(Cl)ccc1Cl | 12.7% |
| c1cc(CNC2=NCCCCC2)ccn1 | 12% |
| NS(=O)(=O)c1ccc(CCNC(=O)CNC(=O)Cc2ccccc2)cc1 | 12.6% |
| CCCc1nc(SCc2ccccn2)c2c(=O)n(C)c(=O)n(C)c2n1 | -14% |
| CCC(C)NC(=O)CN(c1ccc(Cl)c(Cl)c1)S(C)(=O)=O (stereo not drawn) | 9.83% |
| Cc1ccc2nc(NC(=O)CSc3nc(=O)n(CCCN(C)C)c4c3CCC4)sc2c1 | -5.44% |

| Compound | hERG current change (%, negative = inhibition) at 1uM |
| --- | --- |
| CCCCN(C(=O)c1cccc(C)c1)c1c(N)n(CCC)c(=O)[nH]c1=O | 18.3% |
| N/C(=N\OC(=O)CCCOc1ccccc1)c1ccccc1 | 6.08% |
| O=C(Nc1ccccc1)N1CCN(C2c3ccccc3-c3ccccc32)CC1 | 9.82% |
| O=C(Nc1c2c(nn1-c1ccc(Cl)cc1)CS(=O)(=O)C2)c1ccccc1 | 6.79% |
| COc1ccccc1N1CN(CCc2ccccc2)CNC1=S | 13.4% |
| COc1ccccc1/C=N/NC(=O)c1nnn(-c2nonc2N)c1-c1cccs1 | 13.8% |
| Cc1ccc(-c2[nH][nH]c(=O)c(=O)c2N=Nc2ccccc2)cc1 | 9.66% |
| CC(C)c1ccc(NC2CCCN(C(=O)CN3CCCC3=O)C2)cc1 (stereo not drawn) | 13.1% |
| CN1C2C(Br)CCCCN2c2ccc(F)cc2S1(=O)=O (stereo not drawn) | -0.635% |
| CC(=O)N1N=C(c2cccc(Cl)c2)OC1c1ccc(C(C)C)cc1 (stereo not drawn) | 2.61% |
| Cc1cccc(C(=O)Nc2ccccc2SCC(=O)Nc2ccc(C)c(Cl)c2)c1 | 20% |
| NC(=O)N/N=C/c1cn(CC(=O)Nc2ccc(F)cc2)c2ccccc12 | -1.64% |
| COc1ccccc1OCCNC(=O)CN1C(=O)NC2(CCCCC2)C1=O | 0.958% |
| Cc1c(N=CN2CCOCC2)c(=O)n(C)c(=O)n1C | 6.82% |
| O=C(c1cc2c(s1)-c1ccccc1S(=O)(=O)C2)N1CCN(Cc2ccccc2)CC1 | -3.27% |
| Cc1ccc(NC(=O)CCC(=O)NNC(=O)C(C)(C)C)c(C)c1 | -1.86% |
| CCNS(=O)(=O)c1ccc(CCC(=O)N2CCN(c3ccccc3F)CC2)cc1 | 10.2% |
| CCc1ccc(NC(=O)CSc2nnc(CNC(=O)c3c(F)cccc3Cl)o2)cc1 | 10.7% |
| COc1ccc(CNC(=O)CCc2nc3cc(S(=O)(=O)N(C)C)ccc3n2C)cc1OC | 8.18% |
| CCCCNC(=O)CN1CCC2(O)CCCCC2C1c1ccccc1OC (stereo not drawn) | 1.55% |
| O=C1N=C(N2CCCCC2)S/C1=C\c1ccc(Br)cc1 | 12.3% |
